Reference: PubChem BioAssay AID504339 (National Center for Advancing Translational Sciences (NCATS), 2011)
The whole screen tested about 390,000 compounds, of which about 17,000 (4.4%) were called active. Inconclusive results, whose numbers are uncertain, are shown with a selection of clear calls. Calls come from the whole dose curve; as a rule, active = well fitted inhibition curve with a large enough effect; inconclusive = small, poorly fitted or top-dose-only effect; inactive = no such curve, though single readings can be large or run the other way. Where the call is inconclusive, the potency comes from a doubtful curve fit.

Target: Lysine-specific demethylase 4A (Homo sapiens) (UniProt O75164)
Test: qHTS Assay for Inhibitors of JMJD2A-Tudor Domain; note: nearly all actives have a fitted effect of over 50% in size
Settings: AlphaScreen JMJD2A-Tudor / H3K4me3 peptide binding; series mostly up to 114 µM
Potency is the fitted concentration of half-maximal effect; tags give direction and shape of the fitted curve.

UniProt O75164, sequence (O75164 whole entry, looked up, the tested form may be a part): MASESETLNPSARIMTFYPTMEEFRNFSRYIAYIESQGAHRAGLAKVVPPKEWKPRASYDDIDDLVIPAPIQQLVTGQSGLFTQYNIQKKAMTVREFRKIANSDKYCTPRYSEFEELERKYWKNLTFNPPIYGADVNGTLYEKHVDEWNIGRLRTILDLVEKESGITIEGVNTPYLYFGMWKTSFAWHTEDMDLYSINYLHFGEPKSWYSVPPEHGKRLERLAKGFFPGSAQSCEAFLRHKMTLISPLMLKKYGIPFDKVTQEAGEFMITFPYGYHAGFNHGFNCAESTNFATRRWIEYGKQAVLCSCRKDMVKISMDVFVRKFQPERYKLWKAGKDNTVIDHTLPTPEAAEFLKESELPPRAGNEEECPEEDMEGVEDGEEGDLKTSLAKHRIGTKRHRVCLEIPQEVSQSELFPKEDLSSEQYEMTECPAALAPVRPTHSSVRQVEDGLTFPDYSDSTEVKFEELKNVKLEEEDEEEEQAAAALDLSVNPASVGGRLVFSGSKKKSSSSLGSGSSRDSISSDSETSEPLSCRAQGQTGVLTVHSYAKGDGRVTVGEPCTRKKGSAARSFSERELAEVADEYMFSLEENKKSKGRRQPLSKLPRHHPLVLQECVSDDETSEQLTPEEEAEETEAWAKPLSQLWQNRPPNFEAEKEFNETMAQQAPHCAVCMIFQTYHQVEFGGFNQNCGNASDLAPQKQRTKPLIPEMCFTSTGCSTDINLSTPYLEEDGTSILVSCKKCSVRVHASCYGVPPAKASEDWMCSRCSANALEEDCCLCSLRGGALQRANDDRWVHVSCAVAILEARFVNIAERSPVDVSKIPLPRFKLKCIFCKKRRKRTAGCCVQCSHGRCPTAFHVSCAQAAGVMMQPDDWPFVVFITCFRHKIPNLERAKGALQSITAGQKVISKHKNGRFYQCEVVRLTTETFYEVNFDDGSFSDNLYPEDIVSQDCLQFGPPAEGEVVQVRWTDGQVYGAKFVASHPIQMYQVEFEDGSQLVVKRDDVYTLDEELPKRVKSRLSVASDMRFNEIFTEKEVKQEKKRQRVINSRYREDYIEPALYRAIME

| Compound | Potency |
| --- | --- |
| Cc1cc(NC(=O)CSc2ncccn2)no1 | inconclusive: 63.1 µM [inhibitor, partial curve, poor fit] |
| c1ccc(Sc2ncccn2)nc1 | inactive |
| CCOc1ccc(OCCOCCn2c(-c3ccc(Cl)cc3)nc3ccccc3c2=O)cc1 | inactive |
| COc1ccc(Nc2ncnc3c2cnn3-c2cc(Cl)ccc2C)cc1OC | inconclusive: 50.1 µM [inhibitor, full curve, poor fit] |
| O=C(Nc1ccccc1Cl)c1cnccn1 | inactive |
| Cn1c(=O)oc2cc(S(=O)(=O)N3CCC(C(=O)N4CCN(c5ccccc5)CC4)CC3)ccc21 | inactive |
| CCOc1ccccc1C(=O)Nc1nn[nH]n1 | active: 56.2 µM |
| CCCCC(=O)Nc1cccc(NC(=O)C(C)C)c1 | inactive |
| CCOC(=O)c1ccc(-c2ccc(/C=N/NC(=O)c3cncc(Br)c3)o2)cc1 | inconclusive: 89.1 µM [inhibitor, single point] |
| C#CCOCCOCCOCCNc1nc(N2CCN(C(=O)[C@H]([C@@H](C)CC)n3cc(CCCCN)nn3)CC2)nc(N2CCN(C(=O)[C@H](CCCCN)n3cc(CCCC)nn3)CC2)n1 | inactive |
| O=C(COC(=O)c1ccccn1)NNC(=O)c1ccc(Br)cc1 | inconclusive: 89.1 µM [inhibitor, single point] |
| Cc1ccc(S(=O)(=O)Nc2ccc(Br)cc2C(NCC(=O)O)c2ccccc2)cc1 (stereo unspecified) | inactive |
| Nc1ccc(Cc2ccc(N)c(O)c2)cc1O | active: 39.8 µM |
| O=C(Oc1ccc(F)c(F)c1)c1ccc2c(=O)n3c(nc2c1)CCC3 | inactive |
| Cn1c(/C=C/c2ccc(Cl)cc2)c([N+](=O)[O-])c(=O)n(C)c1=O | inactive |
| COc1ccc2c(c1)c(/C=N/Nc1ccc(C(=O)O)cc1)c(C)n2C | inconclusive: 79.4 µM [inhibitor, partial curve] |
| COCCn1c(SCC(=O)Nc2ccc3c(c2)OCCO3)nnc1C(C)C | inactive |
| C(C#CCCCCCCCCC[n+]1ccccc1)#CCCCCCCCCC[n+]1ccccc1 | inactive |
| COc1ccc(NC(=O)CN2C(=O)NC3(CC(C)CC(C)(C)C3)C2=O)cc1S(=O)(=O)N1CCCCC1 (stereo unspecified) | inactive |
| O=C(Nc1ccccc1)c1sc2cc(C(F)(F)F)cnc2c1-c1cccs1 | active: 28.2 µM |
| COc1ccc2nc(Cl)c(C3CC(c4ccco4)=NN3C(=O)CCCC(=O)O)cc2c1 (stereo unspecified) | inactive |
| O=C(c1cc(-c2ccc(Br)cc2)nc2ccccc12)N1CCC1 | inconclusive: 63.1 µM [inhibitor, partial curve] |
| [N-]=C=C1C(=O)NC(=O)C([n+]2ccc(-c3ccncc3)cc2)C1c1ccccc1C(F)(F)F (stereo unspecified) | inactive |
| Clc1cccc(N2CCN(CCCN3CCN(c4ccccc4)CC3)CC2)c1 | inconclusive: 50.1 µM [inhibitor, partial curve] |
| CCOC(=O)Cc1csc(NC(=O)CCc2ccccc2)n1 | inactive |
| Oc1cccc(Nc2c3ccccc3nc3ccccc23)c1 | inconclusive: 44.7 µM [inhibitor, full curve, poor fit] |

| Compound | Potency |
| --- | --- |
| Nc1cc(F)ccc1N1CCCCCC1 | inconclusive: 79.4 µM [inhibitor, partial curve] |
| Cc1cc2nc3c(=O)[nH]c(=S)[nH]c3nc2cc1NC(=O)C(F)(F)F | inactive |
| Cc1cccc(N2CCN(S(=O)(=O)c3ccc4c(c3)NC(=O)C(C)S4)CC2)c1C (stereo unspecified) | inconclusive: 39.8 µM [inhibitor, single point] |
| O=C(CN1CCCCCC1)Nc1ccc(F)c(F)c1 | active: 8.91 µM |
| O=C(c1ccc(Br)cc1)c1cc([N+](=O)[O-])ccc1N1CCCCC1 | inconclusive: 39.8 µM [inhibitor, partial curve] |
| CN(C)c1ccc(C(=O)c2ccc(N(C)C)c(N)c2)cc1N | active: 56.2 µM |
| O=C(/C=C/c1ccco1)NCC1OCCc2ccccc21 (stereo unspecified) | active: 50.1 µM |
| Cc1ccc(CNC(=O)CN(c2ccc(Cl)cc2Cl)S(=O)(=O)c2ccccc2)cc1 | inactive |
| O=C(N/N=C(\Cc1ncc[nH]1)c1ccccc1)c1ccncc1 | active: 39.8 µM |
| O=C(O)c1ccc(NC(=O)c2cn(-c3ccccc3)nc2-c2ccc(F)cc2)cc1 | inactive |
| Cc1ccn2c(NC3CCCCC3)c(-c3cccc(-c4cccc(Cl)c4)c3)nc2c1 | inconclusive: 56.2 µM [inhibitor, partial curve] |
| COc1ccc(-c2csc(NC(=O)C3CCCO3)n2)cc1 (stereo unspecified) | inconclusive: 89.1 µM [inhibitor, single point] |
| COCCCNC(=O)CCC(=O)N1Cc2ccccc2Oc2ncccc21 | inactive |
| CC(=O)N1CCC(=NNc2ncc(C(F)(F)F)cc2Cl)CC1 | inactive |
| CCCc1nc2sc3c(SCC(=O)NCc4ccco4)ncnc3c2c2c1CCC2 | active: 22.4 µM |
| O=C(Oc1c(CN2CCOCC2)cc(Cl)c2cccnc12)c1ccccc1 | inconclusive: 89.1 µM [inhibitor, partial curve] |
| O=C(N/N=C/c1c(O)ccc2ccccc12)c1ccc(CO)nc1 | active: 56.2 µM |
| Cc1c(Cc2ccc3c(c2)OCO3)sc(NC(=O)C2CC2)c1C(N)=O | inconclusive: 17.8 µM [inhibitor, full curve] |
| CCC[n+]1cn(/C(C(=S)Nc2cccc(Cl)c2C)=C(/[O-])c2ccc(OC)c(OC)c2)c2ccccc21 | inconclusive: 44.7 µM [inhibitor, partial curve] |
| Cc1cc(O)c(C(C)C)cc1N=Cc1ccccc1O | inconclusive: 56.2 µM [inhibitor, partial curve] |
| Cc1ccc(Cl)cc1N1CCN(C(=O)c2ccc3c(c2)N(Cc2ccccc2F)C(=O)c2ccccc2S3(=O)=O)CC1 | inactive |
| O=C(CNC(=O)c1ccncc1)N/N=C/c1ccccn1 | inconclusive: 14.1 µM [inhibitor, full curve] |
| COc1ccc(Cl)cc1NC(=O)CN(C)S(=O)(=O)c1ccc(Br)s1 | inactive |
| Cc1ccc(S(=O)(=O)Nc2ccc3cc([N+](=O)[O-])ccc3c2[N+](=O)[O-])cc1 | inconclusive: 35.5 µM [inhibitor, partial curve] |
| O=C(CSc1ncn[nH]1)c1ccc(OC(F)F)cc1 | inactive |
| CCN1C=C(Cc2ccc(OC)cc2)C2=C(C1)C(c1ccc(OC)cc1)C(C#N)=C(N)O2 (stereo unspecified) | inconclusive: 44.7 µM [inhibitor, partial curve] |

| Compound | Potency |
| --- | --- |
| O=S(=O)(c1ccc2[nH]c3c(c2c1)CCCCC3)N1CCN(c2ccccc2)CC1 | inconclusive: 22.4 µM [inhibitor, full curve] |
| CNc1nc(-c2c(C)[nH]c3ccc(OC)cc23)cs1 | inconclusive: 39.8 µM [inhibitor, full curve] |
| COc1cccc(CNC(=O)c2cc(-c3cccc(OC)c3)n[nH]2)c1 | inactive |
| COc1ccc(NC(=O)N/C=C/c2ccccc2)cc1 | inconclusive: 25.1 µM [inhibitor, partial curve] |
| Cc1ccc2cc3c(nc2c1)OCC3 | inconclusive: 100 µM [inhibitor, single point] |
| Cc1ccc(S(=O)(=O)NC(Cc2ccccc2)C(=O)O)cc1 (stereo unspecified) | inactive |
| O=C(CCn1cnc2ccccc2c1=O)NCc1ccccc1 | active: 89.1 µM |
| CCc1cccc(C)c1NC(=O)CSc1nc(-c2ccccc2F)nc2nc[nH]c12 | inconclusive: 28.2 µM [inhibitor, partial curve] |
| Cc1cc(C)cc(C(=O)N(CCc2ccccc2)C2CC3CCC(C2)N3C)c1 (stereo unspecified) | inactive |
| Cc1ccc(Nc2sc(C(=O)c3ccccc3)c(N)c2C(=O)NC(C)C)cc1 | inconclusive: 56.2 µM [inhibitor, partial curve] |
| CC(C)NC(=O)c1onc(CSc2ccccn2)c1C(=O)NC(C)C | inactive |
| NC(=S)NNC(=O)Nc1cccc(Cl)c1 | inconclusive: 35.5 µM [inhibitor, single point] |
| O=C1c2cccc3c([N+](=O)[O-])ccc(c23)C(=O)N1CC1CCCO1 (stereo unspecified) | inconclusive: 50.1 µM [inhibitor, partial curve] |
| CC(/C=N/NC(=S)Nc1cccc(S(=O)(=O)N(C)C)c1)c1ccccc1 (stereo unspecified) | active: 20 µM |
| CCOc1ccc(NC(=S)N(CCc2c(C)[nH]c3ccccc23)Cc2ccco2)cc1 | inconclusive: 31.6 µM [inhibitor, full curve, poor fit] |
| COc1ccccc1CNCc1cc(Br)ccc1OC | inconclusive: 1.58 µM [inhibitor, full curve, poor fit] |
| CC(C)C1Cc2c(sc3c2c(=O)n(-c2ccccc2)c2n[nH]c(=S)n32)CO1 (stereo unspecified) | active: 20 µM |
| CC(=O)OC(C)C1C2=C(C(=O)CC1(C)O)C(=O)c1c(ccc(-c3ccc4c(c3O)C(=O)C3=C(C4=O)C(C(C)OC(C)=O)C(C)(O)CC3=O)c1O)C2=O (stereo unspecified) | inconclusive: 44.7 µM [inhibitor, partial curve] |
| Cc1ccc(-c2cn3c(n2)CCCC3)cc1 | inconclusive: 0.501 µM [inhibitor, full curve, poor fit] |
| O=C(NC1CC(=O)N(c2cccc(F)c2)C1)c1ccc(S(=O)(=O)N2CCOCC2)cc1 (stereo unspecified) | inactive |
| NC1=Nc2cccc3cccc1c23 | inconclusive: 89.1 µM [inhibitor, single point] |
| O=C(Oc1ccccc1)n1c(=S)oc2ccccc21 | active: 20 µM |
| CC(C)C[C@@H](CN)NC(=O)c1nc[nH]c1C(=O)N[C@@H](C)C(=O)CNC[C@H](C)NC(=O)c1nc[nH]c1C(=O)N[C@@H](Cc1ccccc1)C(=O)O | active: 79.4 µM |
| CN(C)c1oc(-c2ccc(OCc3ccccc3)cc2)nc1C#N | inconclusive: 14.1 µM [inhibitor, full curve] |
